B1: chr20:21312971:21312972:+_ENSG00000088930_ENST00000377191|hu_mus|FALSE|FALSE (ssRNA)
RNA: GGGAGUUCUACAGUCCGACGAUCUCCAAACUGAUUACAAAGAGCACAUGGUUUAGGUUUAUUUGGUUUGAAUUCUUCUCUGAUUAUGGUGAAGUUAGGUUCAUGUGUAGCAAGACCAAGCAUAAUUAGAUCAGCAUCAGCUCCCAACAGAGGAUUGAGCAUCA
B2: chr7:150253694:150253695:+_ENSMUSG00000037706_ENSMUST00000037941|mus_mus|FALSE|FALSE (ssRNA)
RNA: GGGAGUUCUACAGUCCGACGAUCAAGUGCAUUGAAGGCAUAAGAGGGCUUACAAACCCAGCUCUUGAAAUGGAGGCAGGAAAGGAACAAAGAUUAAAAAGAUGUGAGCAAUGUGACCCACAGUGGGUUGAGUGGGUGGGCAUGCAACAGAGGAUUGAGCAUCA
B3: 89843522_89849957_2958_CDS_ENSMUSG00000002489_ENSMUST00000163370|mouse|control|control (ssRNA)
RNA: GGGAGUUCUACAGUCCGACGAUCCUUCUCAAUGUGGAUAUUCUGGGUGACUUUUGGACAGAUUUCAAUUUCUUUGUAAAGCAGCUCGUAAAUGUCCUCCUCGGGCUGCGGGAUGUAGAACUGCACUCUGUUCUCCAUUAGGAACAACAGAGGAUUGAGCAUCA
B4: chr12:105536279:105536280:+_ENSG00000136051_ENST00000332180|hu_mus|hu_hu_hu_mus_True|8_78 (ssRNA)
RNA: GGGAGUUCUACAGUCCGACGAUCAGCACUGAACAUGUAAUGUAAUCUGGCUGCAUCAACAGCAUUUUCAUAUACAUCAUCUAAAUAAAUCGGGAAGACAGCGCGAUGCCAGUAUAAAAAACAGCAGUCACAUUGUGCUUGGACCAACAGAGGAUUGAGCAUCA
B5: chr12:25741899:25741900:+_ENSMUSG00000036333_ENSMUST00000066652|mus_mus|FALSE|FALSE (ssRNA)
RNA: GGGAGUUCUACAGUCCGACGAUCCAAGUCUGUCUGGAAGAGACUAGGCCGUUCUGAAGACUUCUUGCCUGGGAGCAGCUUACUACCUGACUGGUCGGAUUUCUCAUCUUCCUCAGUAAUGGGGUCCAGGGGUGAGGCCUCAUUCAACAGAGGAUUGAGCAUCA
B6: chr7:72441615:72441616:-_ENSMUSG00000030516_ENSMUST00000102592|mus_mus|FALSE|FALSE (ssRNA)
RNA: GGGAGUUCUACAGUCCGACGAUCUCAAACAUCUCAGAUGCACAGCCCAAAGAACAGAAGACUGCCACUCCCCCUGUCAAAAAAAUAUUUUAAGUCACACCAUUAUUUUCUUCCAGGUAAUUUGCACAUUUCUGAAACCAUCAACAACAGAGGAUUGAGCAUCA
B7: chr7:54825262:54825263:-_ENSG00000132432_ENST00000352861|hu_hu|hu_hu_hu_mus_False|18_58 (ssRNA)
RNA: GGGAGUUCUACAGUCCGACGAUCCUGCCGGCUGGGCUCCACAAACUGCAUUACCUGAUCCAUGUUUGUUGGAUGGCACACCUAAAACGUAGAGACACGUAGCUCAGGAGAGAACCGGAUGGAGGCCAACCGGAAGCUGGCAACCAACAGAGGAUUGAGCAUCA
B8: 68225485_68225605_2997_CDS_ENSG00000072736_ENST00000346183|human|control|control (ssRNA)
RNA: GGGAGUUCUACAGUCCGACGAUCGCUCACAGUUGCCCCAUCAGGUGGAAAUGACGCUGGAUCACACAAACUGUGACAUAUUAAGGAUGAAGGUGCAGAAAGACCCCCCUGGCCCGUACUUUGUGCUUGAGUUGAGUGCUGUCCCAACAGAGGAUUGAGCAUCA
B9: chr3:139075817:139075818:+_ENSG00000175110_ENST00000310776|hu_mus|motif|central (ssRNA)
RNA: GGGAGUUCUACAGUCCGACGAUCUCAGGAUGCUGCGGAAUGACUGGUAACUAUUUCUUGAUAAGUUUGAAGUGCGGAUUCGGUAUAUGCUCCUCUCUGUGCUUCUGUUUUUGCGAAGACCUUAAUUAAGUCGACUCCCUCAGCCAACAGAGGAUUGAGCAUCA
B10: chr11:23509083:23509084:-_ENSMUSG00000042208_ENSMUST00000043356|mus_mus|motif|central (ssRNA)
RNA: GGGAGUUCUACAGUCCGACGAUCUGUGCCCCACAAACGCCAAUAAACAUCUCUCCAAGAUUUUAAUUCUUCAAAAAGACGGUUCAAAUAUUCAUGUACAUCCCAGGUUUUAUCUCUUAUGUGGAUGUAGAUAAUAUUUCCAUGCAACAGAGGAUUGAGCAUCA
B11: 122213812_122213932_1365_3pUTR_ENSG00000188735_ENST00000449592|human|control|control (ssRNA)
RNA: GGGAGUUCUACAGUCCGACGAUCCUCCCUGAGGCUUCAGGCCCCAUCCCCAGGAAGACUGGCCCGGCCUCAGCCACCUUCAAGCACAGGAGUGAGGCCUCGGGUUCCAGGGACGAUGGGGGACCCAGCAUUAAAUAUGUCAUACAACAGAGGAUUGAGCAUCA
B12: chr8:29959424:29959425:+_ENSG00000104660_ENST00000321250|hu_mus|motif|central (ssRNA)
RNA: GGGAGUUCUACAGUCCGACGAUCGAAGGGCACAUCCAAGCAUCAGGAACAUCAGCCCGAUCGCUCCUCCAAAGGACAAACGGAUUAAAGCUUUGAUGCCCGCCAUGGCGGUGACGUCGCUCCUGGCUCCACGACCCGGGCGGUCAACAGAGGAUUGAGCAUCA
B13: 46969061_46972098_759_3pUTR_ENSMUSG00000025041_ENSMUST00000168536|mouse|control|control (ssRNA)
RNA: GGGAGUUCUACAGUCCGACGAUCCUUCAUUCGGCUCAGAAGCAACGGCAACUUGCCAUCCUUGACGACAUACUUCUCAAGAUUUUCAACCGUCUUCUCCUUAAGGGAGCCCUUGUAAUGGACCCAGUCCACUGCGUCUCUUACCAACAGAGGAUUGAGCAUCA
B14: 60567234_60567354_1112_CDS_ENSMUSG00000020097_ENSMUST00000092498|mouse|control|control (ssRNA)
RNA: GGGAGUUCUACAGUCCGACGAUCGGUCACACCUUUCACCCGGAAAUCAAAUGGUUUCUCCAGUGGGUACCCUGCUUUCUCCAUGAAGACAAUGAGGAAGCCCCCCAGACAAGCAUCCACAUGGAGUGGGAUUUUAUAUCUGACCAACAGAGGAUUGAGCAUCA
B15: chr2:48026839:48026840:+_ENSG00000116062_ENST00000540021|hu_hu|hu_hu_hu_mus_False|18_98 (ssRNA)
RNA: GGGAGUUCUACAGUCCGACGAUCAUAGUGAGCCACUAGAGUCCUAAAUCUGGAACAGUGGCGGUCAUCCGAAAACUGGCCGAUGAAAAACUUGCCCAGUGAAGUGUCCACAAAGCACACACCAUAUACACGAGUGUGACCAGACAACAGAGGAUUGAGCAUCA
B16: chr14:59855892:59855893:+_ENSMUSG00000035469_ENSMUST00000043227|mus_hu|FALSE|FALSE (ssRNA)
RNA: GGGAGUUCUACAGUCCGACGAUCUUCCAUUAUUACAUUAGAUGAAAAAAUCAAUUCAAAUAAGAGUUGUCAUAUCCUGCUAUGAUUAACAAAAAAACAAGUAGAAAAAUAAGAGAGUGUAUUUAAAAAAAAUAAUCAAAUGCUCAACAGAGGAUUGAGCAUCA
B17: 63627622_63628296_5786_CDS_ENSMUSG00000028364_ENSMUST00000107372|mouse|control|control (ssRNA)
RNA: GGGAGUUCUACAGUCCGACGAUCGUAGAGGCCAGAGGUAGUAUCACCAUUCAACAUUGCUUGAGAGCAGUCCCUGGGGAAUGGGUACAGGAGUCCAAUUGUUGUGAAGAUGGUUUGGAUCAGCUUGCUCCUCAGGGACCCACUCAACAGAGGAUUGAGCAUCA
B18: chr3:10015032:10015033:+_ENSMUSG00000027533_ENSMUST00000029046|mus_mus|mus_mus_mus_hu_True|38_108 (ssRNA)
RNA: GGGAGUUCUACAGUCCGACGAUCGUUGUUGCCAUCACAAGUGAUGAUACAAUCUGGCUUGGCCAUUGCGCCCAUUUUUCGCAAAGCUAUUCCCACUCCUAGCUCUUUCAUGUAUUCAUCAAAGCCUUUGCUGUCCACCAGGCGCAACAGAGGAUUGAGCAUCA
B19: 18900888_18903581_980_CDS_ENSG00000157106_ENST00000446231|human|control|control (ssRNA)
RNA: GGGAGUUCUACAGUCCGACGAUCCUCCUGAAGCAAUUUGCUACUUUCAUUAAGCACGUCAUGUACAGCAGCCAAGAUAUUAUCCAAUUGUUUAACUAGUACCAGCUUAUUUUCUGGUUGCUGAAUAAAUUCUUUCAACUGCUUCAACAGAGGAUUGAGCAUCA
B20: chr3:176767854:176767855:-_ENSG00000177565_ENST00000430069|hu_hu|hu_hu_hu_mus_False|48_78 (ssRNA)
RNA: GGGAGUUCUACAGUCCGACGAUCGACAUCCUUGUUACUGGGCACGUCCUGCCCUCCUUCUCGUAUACAGUGUCUAAGCACGAGCUGUGUAGAGCCACUCGUGCUGUUCUCACUGAGGUUCCAGAUUCUUGCCGUGGAGUCUCCCAACAGAGGAUUGAGCAUCA
B21: chrX:41002637:41002638:+_ENSG00000124486_ENST00000378308|hu_hu|FALSE|FALSE (ssRNA)
RNA: GGGAGUUCUACAGUCCGACGAUCUGCUGCCCAGAUAUUAUCAAGAUCCUGUAAGGUCAGAGCUUUUUCUUUGAUGACAAAACGAAGAAUCUUCUCUAACUUUUCUACAUACUGUGGCUGAUGAAGACUAUCUCGCAACACUAUCAACAGAGGAUUGAGCAUCA
B22: chr9:35067926:35067927:-_ENSG00000165280_ENST00000358901|hu_hu|motif|central (ssRNA)
RNA: GGGAGUUCUACAGUCCGACGAUCUGGCUGGAUGCUGAUGACAUCCCCUAGGCGUACACGAAGGUUAUUCCGAACAACUCGGUUCAUCCGAAUCUUCUCAUCAGAACAAGUAUCAUCAGAAAGGACGAUGCAAACAGCUUCUCGCAACAGAGGAUUGAGCAUCA

Some of the results follow.

The test addresses T1, UNK ZnF1-3 (human, UniProt Q9C0B0 31-174).
T1 sequence: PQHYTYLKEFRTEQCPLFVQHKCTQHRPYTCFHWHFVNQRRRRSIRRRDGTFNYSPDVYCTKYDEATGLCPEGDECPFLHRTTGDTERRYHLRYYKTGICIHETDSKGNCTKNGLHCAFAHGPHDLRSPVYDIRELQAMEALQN
Put plainly: nsRBNS (natural sequence RNA bind-n-seq); RBNS binding buffer (assumed for nsRBNS): 25 mM Tris pH 7.5, 150 mM KCl, 3 mM MgCl2, 0.01% Triton X-100, 500 ug/ml BSA, 20 U/ml SUPERase-In, 4 C; UNK is unkempt and MSI1 is Musashi-1; names of the RNAs are library labels; protein concentration not given here; high values mean tight binding.
Molecule B1 had a binding signal of 1.26 enrichment R.

In the case of B2, the binding signal came to 2.15 enrichment R.

As for B3, the binding signal was 0.833 enrichment R.

With B4, the binding signal was determined as 3.28 enrichment R.

Turning to B5, the binding signal came to 0.603 enrichment R.

B6 yielded a binding signal of 2.78 enrichment R.

B7 returned a binding signal of 0.774 enrichment R.

For B8, the binding signal was found to be 1.39 enrichment R.

For the molecule B9, the binding signal came to 0.717 enrichment R.

B10 had a binding signal of 0.688 enrichment R.

With B11, the binding signal is 1.08 enrichment R.

B12 showed a binding signal of 1.33 enrichment R.

In turn, B13 registered a binding signal of 0.598 enrichment R.

B14: the binding signal came to 1.22 enrichment R.

Take B15: the binding signal worked out at 1.24 enrichment R.

With B16, the binding signal came to 2.92 enrichment R.

With B17, the binding signal is 0.887 enrichment R.

B18 had a binding signal of 0.76 enrichment R.

With B19, the binding signal came to 0.641 enrichment R.

As for B20, the binding signal was found to be 0.384 enrichment R.

B21 showed a binding signal of 0.737 enrichment R.

B22 had a binding signal of 0.969 enrichment R.

(Values after article PMC12136788.)
